From PubChem BioAssay AID485344 (National Center for Advancing Translational Sciences (NCATS), 2010)
Hit rate of the full screen: of about 340,000 compounds, about 6,900 (2%) were called active. Rule as the data show it: active = inhibition above about 30%; inactive = below that, where a call was filed. The entries are a selection whose mix differs from that of the whole data set. Where no call is shown, the source filed none.

What follows are compounds tested against D(2) dopamine receptor (Homo sapiens) (UniProt P14416) (assay: HTS Assay for Allosteric Antagonists of the Human D2 Dopamine Receptor: Primary Screen for Antagonists). Conditions: HEK293 TREx D2 cells, calcium flux, dopamine EC80; at 10 µM; stronger effect = higher value.
Procedure, shortened: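 Tetracycline-induced HEK293 T-REx cells expressing D2 force-coupled to calcium signalling were dye-loaded, exposed to compound for 180 s, then challenged with an EC80 of dopamine; calcium flux was followed kinetically for a further 180 s.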
Also: 0% is about no effect.

Chain of UniProt P14416 (P14416 whole entry, looked up): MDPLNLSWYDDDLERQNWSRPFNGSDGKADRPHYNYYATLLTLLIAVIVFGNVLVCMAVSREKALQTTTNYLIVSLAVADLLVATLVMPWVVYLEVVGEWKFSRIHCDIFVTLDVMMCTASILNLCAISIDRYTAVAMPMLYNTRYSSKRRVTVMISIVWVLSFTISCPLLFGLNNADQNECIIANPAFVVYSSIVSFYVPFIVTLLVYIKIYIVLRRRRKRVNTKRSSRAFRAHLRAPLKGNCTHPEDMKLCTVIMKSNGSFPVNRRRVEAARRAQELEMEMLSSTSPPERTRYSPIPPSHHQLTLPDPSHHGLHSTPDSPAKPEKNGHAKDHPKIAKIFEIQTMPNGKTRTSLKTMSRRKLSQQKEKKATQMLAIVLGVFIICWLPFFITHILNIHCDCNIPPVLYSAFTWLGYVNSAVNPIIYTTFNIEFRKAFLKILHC

| Compound | inhibition |
| --- | --- |
| CCc1cccc(NC(=O)Cn2nc(C)c3sc4ccccc4c3c2=O)c1 | 12.9% |
| Cc1ccc(C)c(CN2C(=O)CSc3ccc(C(=O)NCc4ccccc4)cc32)c1 | -4.08% |
| [S-]C(=Nc1ccc(Cl)cc1)N[n+]1ccccc1 | active: 61.9% |
| COc1ccccc1OC(C)C(=O)N1CCC(c2nc3ccccc3s2)CC1 (configuration not stated) | 2.91% |
| COc1ccc(Cn2c(=O)c3ccccc3n3c(-c4ccc(C)cc4)nnc23)cc1 | 17% |
| Cc1ccc2c(c1)c(=O)c1ccccc1n2CCCC(=O)Nc1ccc(C)c(C)c1 | -4.85% |
| CC(C)OC(=O)c1ccc(NC(=O)CSc2nc(-c3cccs3)cc(C(F)(F)F)n2)cc1 | -1.11% |
| Cc1ccc(COC(=O)c2[nH]c3c(c2C)C(=O)CC(c2ccc(Cl)cc2)C3)cc1 (configuration not stated) | 11.5% |
| Cc1ccc(C(=O)C2CCN(CC(=O)Nc3ccc(N(C)C)cc3)CC2)cc1 | active: 33.4% |
| CC(C)CC(=O)n1nc(-c2ccco2)nc1NCc1ccc(Cl)cc1 | -2.08% |
| Cc1ccc2onc(CNC(=O)N3CCN(c4cc(Cl)ccc4C)CC3)c2c1 | -3.09% |
| COc1ccccc1CNC(=O)c1ccc2c(c1)nc(C)n2-c1cccc(C)c1 | 17% |
| Cc1ccc(CCNC(=O)c2sc3nc4n(c(=O)c3c2C)CCCC4)cc1 | -7.04% |
| COc1ccc(C(C)=O)cc1CSc1nc(NCc2ccccc2)c2ccccc2n1 | -16.3% |
| Cc1ccc(C)c(-c2nnc(NC(=O)c3ccco3)o2)c1 | active: 40.5% |
| COc1ccc(NC(=O)C(C)N2Cc3ccccc3C2=O)cc1OC (configuration not stated) | 20.1% |
| CCOC(=O)c1cc(S(=O)(=O)N2CCN(c3ccccc3OC)CC2)[nH]n1 | 8.12% |
| COc1ccc(NC(=O)CSCc2cc(=O)c3cc(Cl)ccc3[nH]2)cc1 | -2.46% |
| Cc1ccc(N2CC(NC(=O)C3CCCCC3)CC2=O)cc1 (configuration not stated) | 24.3% |
| CCc1ccc(C(=O)c2cn(CC(=O)Nc3ccc(F)cc3)c3ccc(F)cc3c2=O)cc1 | 16.1% |
| CCn1c(CNC(=O)c2ccc(OC)cc2)nnc1SCC(=O)Nc1ccc(F)cc1 | -12.9% |
| CCOc1ccc(C2CC(=O)Nc3c2c(=O)[nH]c2ncnn32)cc1 (configuration not stated) | 4.53% |
| Cc1cccc(C(=O)Nc2cc(-c3ccccc3F)nn2-c2ccccc2)c1 | -5.05% |
| COc1cc(NS(=O)(=O)c2cc3[nH]c(=O)[nH]c3cc2C)cc(OC)c1OC | 5.66% |
| COc1ccc(-c2cc(C(=O)Nc3c(C)nn(Cc4ccccc4C)c3C)no2)cc1 | -12.8% |

| Compound | inhibition |
| --- | --- |
| Cc1cccc(CN2C(=O)c3ccccc3S(=O)(=O)c3ccc(C(=O)OCC4CCCO4)cc32)c1 (configuration not stated) | 0.405% |
| CCc1ccc(CNC(=O)C2COc3ccccc3C2)cc1 (configuration not stated) | 2.14% |
| COc1cc(C(=O)NCc2nc(-c3ccc(Cl)cc3)no2)cc(OC)c1OC | 6.15% |
| COC(=O)CCNC(=O)N1CCN(c2nnc(C)c3c(C)n(-c4ccccc4)nc23)CC1 | -3.16% |
| O=C(Cn1c(=O)n(Cc2ccc(F)cc2)c(=O)c2sc3ccccc3c21)Nc1ccc(F)cc1F | -18.1% |
| COc1cccc(CNC(=O)Cn2cccc2C(=O)c2ccccc2)c1 | -3.67% |
| O=c1c2ccsc2ncn1Cc1ccc(Cl)cc1 | active: 38% |
| COc1cccc(-c2nc(CS(=O)(=O)CC(=O)Nc3ccc(C)c(Cl)c3)c(C)o2)c1 | -7.37% |
| Cc1cccc(NC(=O)c2cc3c([nH]c2=O)CC(c2ccccc2)CC3=O)c1 (configuration not stated) | -22.8% |
| CCN1CCc2c(sc(-n3cccc3)c2C(CCC(C)C)NC(=O)NCCC(=O)OC)C1 (configuration not stated) | -7.57% |
| CCc1cccc(C)c1NC(=O)C(NS(=O)(=O)c1ccc2c(c1)CCC(=O)N2)c1ccccc1 (configuration not stated) | -11.8% |
| Cc1ccc(C)c(N2CCN(C(c3ccccc3)c3nnc(-c4ccccc4)o3)CC2)c1 (configuration not stated) | 1.23% |
| CCCn1c2ccccc2c2cnn(CC(=O)NCCCOC(C)C)c(=O)c21 | 10% |
| Cc1ccc(NS(=O)(=O)c2c(C)nc3sc(C)c(C)n3c2=O)cc1F | -3.84% |
| CC(C)COc1ccc(C(=O)N(Cc2cccc(F)c2)C2CCS(=O)(=O)C2)cc1 (configuration not stated) | -13.7% |
| CCOc1ccc(S(=O)(=O)NCc2cccn2Cc2cccc(C)c2)cc1 | 1.66% |
| CCOC(=O)c1cnc2ccc(OCC)cc2c1NCCc1ccc(OC)c(OC)c1 | 19% |
| Cc1cccc(N2CCN(CC(O)COCc3cccs3)CC2)c1C (configuration not stated) | active: 70.5% |
| CCCn1c(=N)c(C(=O)NC2CCCCC2)cc2c(=O)n3cc(C)ccc3nc21 | 4.08% |
| Cc1ccc([N+](=O)[O-])c(OCCCN2CCCCCC2)c1 | active: 70.9% |
| COc1cc(F)c(C2=CC(=O)C[C@H](c3ccc(Cl)cc3)C2)cc1F | active: 34.8% |
| Cc1ccc2c(C)c(C(=O)N(Cc3ccc(Cl)cc3)C3CCS(=O)(=O)C3)oc2c1 (configuration not stated) | -2.65% |
| COc1cc2c(cc1OC)C(COc1ccc3c(C)cc(=O)oc3c1)N(C(=O)c1ccc(Cl)cc1)CC2 (configuration not stated) | -7.83% |
| O=C1CN(C(=O)c2ccccc2C(F)(F)F)C(c2ccccc2)c2cc(F)ccc2N1 (configuration not stated) | -12.1% |
| CCCNc1c(NC(=O)c2ccc(OCCC)cc2)c(=O)oc2ccccc12 | -4.98% |

| Compound | inhibition |
| --- | --- |
| O=C1[C@@H]2CSC(c3ccc(C(F)(F)F)cc3)N2C(=O)N1c1ccccc1 (some centres not stated) | 8.93% |
| O=C(CSCc1ccccc1Cl)NN=C1CCCCCC1 | active: 38.4% |
| CCN(CC)C(=O)Cn1c(=O)n(Cc2ccc(C(=O)NCc3ccccc3Cl)cc2)c(=O)c2ccccc21 | 11.5% |
| O=C(CSc1nccn1-c1ccc(F)cc1)Nc1ccc(OC(F)(F)F)cc1 | -4.35% |
| COc1cc(C2C(=O)N(C3CCCCC3)CC(=O)N2Cc2ccc(C)cc2)ccc1OC(C)C (configuration not stated) | 24.2% |
| CCOC(=O)c1c(-c2ccc(Br)cc2)csc1NC(=O)c1ccccc1F | 8.19% |
| COc1cc(NC(=O)N2CCC(CN3CCCC3)CC2)cc(OC)c1OC | -2.82% |
| CN(C)c1ccc(C(CNS(=O)(=O)c2ccccc2)N2CCc3ccccc32)cc1 (configuration not stated) | 9.09% |
| COc1cc(C(=O)NCC(c2cccnc2)N2CCc3ccccc32)cc(OC)c1OC (configuration not stated) | -26% |
| Cc1ccc(S(=O)(=O)N(C)C)cc1NC(=O)CSc1ccc2c(c1)OCCO2 | active: 36.3% |
| Cc1ccccc1Cn1c(=O)n(Cc2ccc(Cl)cc2)c(=O)c2cccnc21 | -5% |
| COc1ccc(OC)c(NC(=O)CSC2=Nc3ccccc3C3=NC(CC(=O)NCc4ccc5c(c4)OCO5)C(=O)N23)c1 (configuration not stated) | -26.7% |
| COc1cc(Cl)c(C)cc1NC(=O)c1sc2nc3n(c(=O)c2c1C)CCCCC3 | 13.8% |
| CCOC(=O)c1c(NC(=O)c2nc(SC(C)C)ncc2Cl)sc2c1CCCC2 | 20.8% |
| Cc1nc(NCc2ccco2)[nH]c(=O)c1CCC(C)C | active: 30.3% |
| Cn1c(SCc2ccc(C(F)(F)F)cc2)nc2c([nH]c3ccccc32)c1=O | -3.29% |
| O=c1cc(N2CCN(c3ccc(F)cc3)CC2)[nH]c(=O)n1-c1ccc(Br)cc1 | 7.52% |
| c1ccc2c(c1)CCN(CCCNc1nc3ccccc3n3cnnc13)C2 | active: 69.9% |
| CCCCN1C(=O)CN(C2CCCCCC2)C(=O)C1c1ccc(OCCC)c(OC)c1 (configuration not stated) | 15.2% |
| CCOc1ccc(CCNC(=O)c2nnc(Cc3cc(OC)c(OC)c(OC)c3)o2)cc1OCC | -27.1% |
| CCOC(=O)C1CCN(C(=O)Cn2nc(C)n3c(cc4cc(F)ccc43)c2=O)CC1 | 0.161% |
| COc1ccc(N2CCN(S(=O)(=O)CCNC(=O)Cc3ccc(Cl)cc3)CC2)cc1 | 27.1% |
| O=C(NCCN1CCOCC1)C12CC3CC(C1)CC(c1ccccc1)(C3)C2 | active: 38.4% |
| CCn1cc(S(=O)(=O)c2cc(C)cc(C)c2)c(=O)c2cc(F)c(N3CCCC3)cc21 | 11.6% |
| COc1ccc(-c2nc3c4ccccc4n(CC(=O)Nc4cc(F)ccc4F)c(=O)n3n2)cc1 | 1.03% |

| Compound | inhibition |
| --- | --- |
| CCOc1ccc(OC(=O)c2cn(-c3ccc(C)cc3)c(=O)c3ccccc23)cc1 | -0.413% |
| COc1cc(-c2ccno2)ccc1S(=O)(=O)N1CCN(c2ccc(C(C)=O)cc2)CC1 | 4.5% |
| COc1ccc(-c2cc(C(F)(F)F)n3nc(C(=O)Nc4cc(Cl)cc(Cl)c4)cc3n2)cc1 | 0.556% |
| CCCCC(=O)Nc1ccccc1C(=O)OCc1cc(=O)n2nc(C3CCCCC3)sc2n1 | 1.95% |
| Cc1c(Cl)ccc2c(C(=O)O)cc(-c3ccccc3)nc12 | active: 52% |
| CCCOc1cccc(C(=O)Nc2cccc(NC(=O)c3ccc(C(C)(C)C)cc3)c2)c1 | 6.04% |
| COc1ccc2[nH]c(C)c(CCNS(=O)(=O)c3cc(F)ccc3OC)c2c1 | 10.4% |
| CN(C)c1ccc(C(CNC(=O)c2ccc(C(C)(C)C)cc2)N2CCOCC2)cc1 (configuration not stated) | -14.9% |
| COc1ccc(NC(=O)CSc2[nH]c(=O)cc(C)c2C#N)cc1OC | active: 34.3% |
| COc1ccc(CCNC(=O)C2(c3cccs3)CCOCC2)cc1OC | -24.3% |
| COC(=O)c1cccc(-n2c(CCC(=O)O)ccc2-c2ccc(OC)cc2)c1 | 8.6% |
| CCOC(=O)c1cc(-c2ccccc2)n(CCCC(=O)Nc2ccc(C(C)C)cc2)c1C | 14.9% |
| Cc1ccc(Cl)cc1NC(=O)C(C)n1nnc2sc(-c3ccccc3)cc2c1=O (configuration not stated) | 15.2% |
| CCOc1ccc(/C=N/NC(=O)c2cc3c(OC)cc(OC)c(OC)c3[nH]2)cc1 | active: 55.7% |
| CCCCOc1ccc(S(=O)(=O)Nc2ccc(-c3ccc(N4CCCCCC4)nn3)cc2)cc1 | 26.6% |
| COc1ccc(Cn2c(SCc3ccc(C(=O)NC4CCCC4)cc3)nc3ccncc32)cc1 | 11.2% |
| CCOC(=O)c1c(C)oc2ncnc(N3CCN(c4ccccc4OC)CC3)c12 | 1.9% |
| O=C(COc1ccc2oc3c(c2c1)CCCC3)Nc1ccc(Br)cc1 | -10.8% |
| COc1ccc(-c2cc(C(C)=O)c(C)n2CCC(=O)NCc2ccccc2OC)cc1 | 14% |
| CCc1ccccc1N(C)C(=O)Cc1c(C(=O)O)c(C)cn1C | -11.2% |
| Brc1cccc(CNCCSc2nnnn2-c2ccccc2)c1 | -13.3% |
| Cc1cc(C)c(NC(=O)C(C)n2nc(-c3ccc(C)c(C)c3)ccc2=O)c(C)c1 (configuration not stated) | 7.59% |
